Source: PubChem BioAssay AID686978 (National Center for Advancing Translational Sciences (NCATS), 2013)
Several values for one entry are separate records, joined by “and”; a condition that tells them apart may be missing. Equal values may be shown once. About 64,000 (15%) of roughly 420,000 compounds were called active. This list was built around the results that the source calls inconclusive (neither active nor inactive); the mix of calls is not that of the screen. The call rests on the fitted dose curve; in most records, active means well fitted inhibition curve with a large enough effect; inconclusive means small, poorly fitted or top-dose-only effect; inactive means flat fitted curve, though single readings scatter. Where the call is inconclusive, the potency comes from a doubtful curve fit.
Potency means the concentration at half of the fitted maximal effect; tags describe the fitted curve by direction and shape.

Assay: qHTS for Inhibitors of human tyrosyl-DNA phosphodiesterase 1 (TDP1): qHTS in cells in absence of CPT; further: nearly all actives have a fitted effect of over 55% in size
Conditions: DT40 Tdp1-/- hTDP1 cells, no CPT, ATP luminescence, 48 h; series mostly up to 46.2 µM
Procedure, shortened: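 Luminescent ATP content (CellTiter-Glo) served as the growth readout. Knockout chicken DT40 cells expressing human TDP1 were exposed to compounds without camptothecin for a minimum 48 hr at 37 °C.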
In the case of `CC1CCc2[nH]c3ccc(C(=O)NCCCOC(C)C)cc3c2C1` (configuration not stated), the Potency was inconclusive: 14.6 µM [inhibitor, partial curve, poor fit]. In the case of `O=C(CCCOc1ccc(Cl)cc1)Nc1ccc(N2CCOCC2)cc1`, the Potency was inconclusive: 18.4 µM [inhibitor, partial curve]. In the case of `CC1=C(C(=O)Nc2ccc(C)cc2C)C(c2ccc(Br)cc2)n2ncc(C(=O)Nc3cccc(C)c3)c2N1` (configuration not stated), the Potency was inconclusive: 29.1 µM [inhibitor, single point]. For `Cc1sc(=NC(=O)c2ccco2)n(C)c1-c1ccccc1`, the Potency was inconclusive: 23.1 µM [inhibitor, single point]. In the case of `Cc1nn(-c2ccccc2)c(C)c1N`, the Potency was “inactive”. In the case of `CCOc1ccc(C(=O)Nc2ccc(N3CCN(C)CC3)cc2)cc1`, the Potency was “inactive”. In the case of `CC(C)C(=O)n1nc(-c2cccnc2)nc1NCc1cccs1`, the Potency was “inactive”. With `CSCc1ccc(C(=O)NC2CC(C)(C)Cc3c2cnn3-c2ccc(F)cc2)o1` (configuration not stated) the Potency was “inactive”. In the case of `CCOC(=O)C1(CCOc2ccccc2)CCN(CC=C(C)C)CC1`, the Potency was inconclusive: 5.17 µM [inhibitor, single point]. For `O=C(C[n+]1cc(Br)cc2ccccc21)c1ccccc1`, the Potency was active: 18.4 µM. For `Cc1ccc(C(CC(N)=O)c2ccco2)cc1` (configuration not stated), the Potency was inconclusive: 25.9 µM [inhibitor, partial curve, poor fit]. In the case of `Cc1ccc(C(=O)OCC(=O)NCc2ccco2)cc1`, the Potency was “inactive”. In the case of `O=C(/C=C/c1ccc(F)cc1)c1ccc(N2CCOCC2)cc1`, the Potency was inconclusive: 23.1 µM [inhibitor, partial curve]. In the case of `CCOC(=O)c1sc2nc(CSc3ccccc3)[nH]c(=O)c2c1C`, the Potency was inconclusive: 23.1 µM [inhibitor, single point]. For `O=C(CSc1nc2c(c(=O)n1-c1ccccc1)SCC2)N1CCOCC1`, the Potency was “inactive”. For `Cc1c(N2C(=O)C(=O)/C(=C(/O)c3ccc(Br)cc3)C2c2cccnc2)c(=O)n(-c2ccccc2)n1C` (configuration not stated), the Potency was “inactive”. In the case of `Cc1ccsc1C(=O)OCC(=O)N(C)C1CCCCC1`, the Potency was inconclusive: 16.4 µM [inhibitor, partial curve]. For `CCCCCn1c(CNC(=O)c2ccccc2)nc2ccccc21`, the Potency was inconclusive: 20.6 µM [inhibitor, single point]. In the case of `O=C(CSC1CC(=O)N(CCc2ccccc2)C1=O)Nc1ccc(Br)cc1` (configuration not stated), the Potency was inconclusive: 25.9 µM [inhibitor, single point]. In the case of `CCc1ccc(S(=O)(=O)NCc2nc3cccnc3n2Cc2cccc(OC)c2)cc1`, the Potency was inconclusive: 20.6 µM [inhibitor, single point]. For `OCCC1CN(C/C=C/c2ccco2)CCN1Cc1ccccc1` (configuration not stated), the Potency was “inactive”. With `CCOc1ccc(NC(=O)Cn2c(=O)n(CCCCC(=O)NCc3ccc4c(c3)OCO4)c(=O)c3ccccc32)cc1` the Potency was “inactive”. With `Cc1ccc(CN(C)C(=O)c2cccc(S(=O)(=O)N3CCc4ccccc4C3)c2)o1` the Potency was “inactive”. For `Cc1ccc(-c2ccc(CN3C(CC(C)C)C(=O)N(Cc4cn(CCC5OCCCO5)nn4)CCS3(=O)=O)cc2)cc1` (configuration not stated), the Potency was active: 20.6 µM. With `O=C(Nc1ccccc1)O/N=C1\CCCCC1c1ccc([N+](=O)[O-])cc1[N+](=O)[O-]` (configuration not stated) the Potency was inconclusive: 20.6 µM [inhibitor, single point]. For `Nc1c(Cl)cc(C2=NCCn3nc4ccccc4c32)cc1Cl`, the Potency was inconclusive: 20.6 µM [inhibitor, single point]. With `O=C(NNC(=O)c1cc2c(s1)CCCC2)c1ccccc1` the Potency was inconclusive: 16.4 µM [inhibitor, single point]. In the case of `Cc1ccccc1Cn1c(=O)n(CC2CCC(C(=O)N3CCOCC3)CC2)c(=O)c2sccc21` (configuration not stated), the Potency was inconclusive: 20.6 µM [inhibitor, single point]. For `COc1ccc(/C(N)=N/O)cc1O`, the Potency was “inactive”. For `CN(C)c1cccc2c(C=C(C#N)C#N)ccc(N(C)C)c12`, the Potency was inconclusive: 18.4 µM [inhibitor, single point]. For `Cc1noc(C)c1COC(=O)c1ccccc1NC(=O)c1ccco1`, the Potency was inconclusive: 29.1 µM [inhibitor, single point]. With `CCc1c(O)nc(SCC(=O)Nc2ccccc2)n(C(C)CC)c1=O` (configuration not stated) the Potency was “inactive”. For `CCOC(=O)C1=NOC(Cn2cc(C(C)=O)c(=O)[nH]c2=O)C1` (configuration not stated), the Potency was inconclusive: 3.66 µM [inhibitor, partial curve, poor fit]. For `CN1C(=O)CC(N2CCN(CC(N)=O)CC2)C1=O` (configuration not stated), the Potency was “inactive”. With `CCCCCCOC(=O)c1ccc(NC(=O)c2cc(OC)c(OC)c(OC)c2Br)cc1` the Potency was inconclusive: 29.1 µM [inhibitor, single point]. In the case of `CCN(CC)S(=O)(=O)c1cccc(C(=O)Oc2cccnc2)c1`, the Potency was “inactive”. For `CC(C)CC(c1nnnn1Cc1cccs1)N1CCN(c2nc3ccccc3s2)CC1` (configuration not stated), the Potency was inconclusive: 20.6 µM [inhibitor, single point]. In the case of `COC(=O)Nc1ccc(S(=O)(=O)Nc2ccc(O)cc2)cc1`, the Potency was inconclusive: 18.4 µM [inhibitor, partial curve]. With `Nc1nc(-c2ccccc2)[nH]c(=O)c1N` the Potency was inconclusive: 25.9 µM [inhibitor, single point]. With `CC1=C2C(O)C(=O)OC3CC4C(C)(C)C(=O)C=C[C@]4(C)C(CC1)[C@@]23C` (some centres not stated) the Potency was “inactive”. With `CCOc1ccccc1N(CC(=O)Nc1ccc(S(=O)(=O)N2CCOCC2)cc1)S(=O)(=O)c1ccc(Cl)cc1` the Potency was inconclusive: 16.4 µM [inhibitor, partial curve]. In the case of `Cc1ccc(S[C@@H](CCN2CC[C@H](O)CCC2=O)c2ccccc2)cc1`, the Potency was “inactive”. In the case of `CCOC(=O)C1CCCN(S(=O)(=O)c2ccc(Br)s2)C1` (configuration not stated), the Potency was “inactive”. In the case of `COc1cc([N+](=O)[O-])cc(/C=N/NC(=O)Cn2nc(C)cc2C)c1O`, the Potency was active: 23.1 µM. In the case of `COc1ccc(C=C2SC(=O)NC2=O)cc1OC`, the Potency was active: 16.4 µM. In the case of `CCOc1ccc(CNC(=O)CCCc2cn(C)c3ccccc23)cc1OC`, the Potency was inconclusive: 20.6 µM [inhibitor, single point] and inconclusive: 18.4 µM [inhibitor, single point]. With `O=C(/C=C\c1cccs1)c1c(O)ccc2ccc(=O)oc12` the Potency was inconclusive: 18.4 µM [inhibitor, partial curve].
